Measured values reported in patent US6153604A, “Therapeutic substituted guanidines” (Cambridge NeuroScience, Inc., priority 1995, dated 2000).
Counter-ions that a name gives are not always drawn.

What follows are compounds tested against PCP receptor (assay: PCP receptor radioligand binding assay ([3H]MK-801, rat brain membranes)). Conditions: read-out: [3H-MK801] Ki (head printed "Kj"); derived from the IC50 values as described by Cheng et al.
In the case of CSc1cccc(N(C)C(=N)Nc2cc(Br)ccc2Br)c1 [Compd. No. 65 (Table I), N-(3-Methylthiophenyl)-N-methyl-N'-(2,5-dibromophenyl)guanidine hydrochloride], the Ki is reported as 4.13 nM. In the case of CSc1ccc(Cl)c(NC(=N)N(C)c2cccc(C(F)(F)F)c2)c1 [Compd. No. 66 (Table I), N-(3-Trifluoromethylphenyl)-N-methyl-N'-(2-chloro-5-methylthiophenyl)guanidine hydrochloride], the Ki is reported as 6.92 nM. Compound CCc1ccc(Cl)c(NC(=N)N(C)c2cccc(C(F)(F)F)c2)c1 [Compd. No. 67 (Table I), N-(3-Trifluoromethylphenyl)-N-methyl-N'-(2-chloro-5-ethylphenyl)guanidine hydrochloride] has a Ki of 59.2 nM. In the case of CSc1ccc(Br)c(NC(=N)N(C)c2cccc(C(F)(F)F)c2)c1 [Compd. No. 69 (Table I), N-(3-Trifluoromethylphenyl)-N-methyl-N'-(2-bromo-5-methylthiophenyl)guanidine hydrochloride], the Ki is reported as 4.27 nM. With CCc1ccc(Br)c(NC(=N)N(C)c2cccc(C(F)(F)F)c2)c1 [Compd. No. 70 (Table I), N-(3-Trifluoromethylphenyl)-N-methyl-N'-(2-bromo-5-ethylphenyl)guanidine hydrochloride] the Ki was 15.7 nM. Compound CN(C(=N)Nc1cc(Br)ccc1Br)c1cccc(C(F)(F)F)c1 [Compd. No. 71 (Table I), N-(3-Trifluoromethylphenyl)-N-methyl-N'-(2,5-dibromophenyl)guanidine hydrochloride] has a Ki of 26.1 nM. With CSc1ccc(Cl)c(NC(=N)N(C)c2cccc(Br)c2)c1 [Compd. No. 72 (Table I), N-(3-Bromophenyl)-N-methyl-N'-(2-chloro-5-methylthiophenyl)guanidine hydrochloride] the Ki was 3.58 nM. For CCc1cccc(NC(=N)Nc2cc(C(F)(F)F)ccc2F)c1 [Compound 5], the Ki was 76 nM. With CCc1ccc(Br)c(NC(=N)N(C)c2cccc(OC(F)(F)F)c2)c1 [Compound 74] the Ki was 12.3 nM. Compound CN(C(=N)Nc1cc(Br)ccc1Br)c1cccc(S(C)(=O)=O)c1 [Compound 75] has a Ki of 408 nM. CN(C(=N)Nc1cc(Br)ccc1Br)c1cccc([S+](C)[O-])c1 (centres unmarked) [Compound 76] was tested, and the Ki was 248 nM. For CSc1ccc(Cl)c(NC(=N)N(C)c2cccc(I)c2)c1 [Compound 77], the Ki was 1.62 nM. CCc1ccc(Cl)c(NC(=N)Nc2cccc(I)c2)c1 [Compound 78] gave a Ki of 10.5 nM. For CSc1ccc(Cl)c(NC(=N)N(C)c2cccc3cccnc23)c1 [Compound 79], the Ki was 17 nM.
